T1: insulin degrading enzyme (IDE) (Rattus norvegicus, UniProt P35559)
T1 sequence (P35559 1-1019): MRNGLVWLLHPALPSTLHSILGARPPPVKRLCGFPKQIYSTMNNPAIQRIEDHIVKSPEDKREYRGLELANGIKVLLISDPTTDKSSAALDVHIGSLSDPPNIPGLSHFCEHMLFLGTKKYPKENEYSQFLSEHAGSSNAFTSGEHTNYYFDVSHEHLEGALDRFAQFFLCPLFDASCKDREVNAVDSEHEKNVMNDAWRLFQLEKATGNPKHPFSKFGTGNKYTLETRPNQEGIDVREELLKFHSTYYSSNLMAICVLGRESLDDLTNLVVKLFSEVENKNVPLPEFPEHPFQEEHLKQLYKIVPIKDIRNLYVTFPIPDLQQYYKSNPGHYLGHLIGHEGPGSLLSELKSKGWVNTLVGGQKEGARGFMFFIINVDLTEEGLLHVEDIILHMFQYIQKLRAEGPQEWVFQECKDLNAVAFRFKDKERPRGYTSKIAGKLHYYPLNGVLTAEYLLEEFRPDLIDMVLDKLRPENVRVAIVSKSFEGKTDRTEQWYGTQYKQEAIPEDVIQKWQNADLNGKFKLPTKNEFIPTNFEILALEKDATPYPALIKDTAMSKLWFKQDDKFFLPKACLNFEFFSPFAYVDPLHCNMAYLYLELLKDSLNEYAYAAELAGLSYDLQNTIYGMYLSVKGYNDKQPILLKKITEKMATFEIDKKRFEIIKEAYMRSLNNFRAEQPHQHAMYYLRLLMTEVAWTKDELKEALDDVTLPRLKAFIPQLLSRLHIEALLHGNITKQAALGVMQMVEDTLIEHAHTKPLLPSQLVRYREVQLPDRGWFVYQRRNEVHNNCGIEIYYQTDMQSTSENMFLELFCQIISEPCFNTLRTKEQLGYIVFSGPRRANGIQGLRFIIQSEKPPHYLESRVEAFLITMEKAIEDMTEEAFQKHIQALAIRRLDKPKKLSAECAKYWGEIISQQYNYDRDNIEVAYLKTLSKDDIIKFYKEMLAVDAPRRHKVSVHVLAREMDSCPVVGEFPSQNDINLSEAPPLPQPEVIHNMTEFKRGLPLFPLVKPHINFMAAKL

T2: human NPRA (hNPRA) (Homo sapiens, UniProt P16066)
T2 construct: expressed in transfected cells
T2 sequence (P16066 33-1061): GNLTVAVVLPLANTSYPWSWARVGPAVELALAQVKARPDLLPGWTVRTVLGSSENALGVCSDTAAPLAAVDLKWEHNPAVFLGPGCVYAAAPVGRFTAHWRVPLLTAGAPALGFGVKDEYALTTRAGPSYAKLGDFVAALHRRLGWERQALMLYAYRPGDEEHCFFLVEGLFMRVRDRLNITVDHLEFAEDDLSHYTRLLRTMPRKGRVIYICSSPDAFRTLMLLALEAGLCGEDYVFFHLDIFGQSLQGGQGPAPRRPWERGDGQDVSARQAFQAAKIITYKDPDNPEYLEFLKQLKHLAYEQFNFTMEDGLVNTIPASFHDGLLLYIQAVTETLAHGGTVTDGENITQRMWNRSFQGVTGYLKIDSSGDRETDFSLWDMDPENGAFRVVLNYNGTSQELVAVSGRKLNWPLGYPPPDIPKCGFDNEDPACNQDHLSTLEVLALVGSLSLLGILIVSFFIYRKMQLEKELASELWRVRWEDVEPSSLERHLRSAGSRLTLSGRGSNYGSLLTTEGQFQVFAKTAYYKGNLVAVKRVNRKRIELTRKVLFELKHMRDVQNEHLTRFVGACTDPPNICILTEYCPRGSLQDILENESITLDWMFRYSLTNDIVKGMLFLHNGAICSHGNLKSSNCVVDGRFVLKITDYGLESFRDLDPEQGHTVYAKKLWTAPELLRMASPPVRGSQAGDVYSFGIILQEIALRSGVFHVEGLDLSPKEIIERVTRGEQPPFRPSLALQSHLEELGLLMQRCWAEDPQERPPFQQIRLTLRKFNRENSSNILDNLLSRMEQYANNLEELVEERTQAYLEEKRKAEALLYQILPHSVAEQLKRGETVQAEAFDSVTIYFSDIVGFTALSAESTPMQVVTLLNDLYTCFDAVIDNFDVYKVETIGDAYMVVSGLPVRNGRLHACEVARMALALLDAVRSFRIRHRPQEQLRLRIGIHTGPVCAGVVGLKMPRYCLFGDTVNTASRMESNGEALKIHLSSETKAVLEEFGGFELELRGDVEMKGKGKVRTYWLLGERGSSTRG


Experiments:
[1] = target: T1, insulin degrading enzyme (IDE); test: Sensitivity towards proteolytic degradation by IDE (reporter cell activity after incubation); conditions: 4 hours incubation with 0.6 μg/ml IDE at 37° C., then reporter cell activity
[2] = target: T3, neutral endopeptidase (NEP) (Homo sapiens, UniProt P08473); test: Sensitivity towards proteolytic degradation by NEP (reporter cell activity after incubation); format: in vitro ADME; conditions: 4 hours incubation with 0.6 μg/ml NEP at 37° C., then reporter cell activity
T3 construct: purchased R&D Systems 1182-ZNC

human NPRA (hNPRA) = target: T2, human NPRA (hNPRA); test: cGMP quantification (HTRF) on stable hNPRA-CHO k1 cells (res, ics, pcs samples); format: cell-based; conditions: ANP engrafted constructs, summarized assessment relative to TPP-5661 (excerpt of Table 7)
Method: All activities shown in Tables 7 and 8 were measured on cells with heterologous over expression of human NPRA (hNPRA) by use of a cGMP quantification assay conducted according to manufacturer's instructions (cisbio; 62GM2PEH). In brief, the assay quantifies cGMP in buffered solution or cell-culture supernatants based on the competition between cGMP produced by the cell as result of the NPRA stimulation through the (natriuretic peptide) sample and d2 labelled cGMP for binding to a Cryptate labelled antibody. Sample cGMP and d2 labeled cGMP compete for binding to a limited number of sites on Cryptate labeled anti-cGMP antibodies, and consequently, HTRF® specific fluorescent signal (i.e. energy transfer) is inversely proportional to the concentration of cGMP in the sample.
Dose-response curve data were analyzed with GraphPad Prism (version 7.00 for Windows, GraphPad Software, La Jolla California USA) and EC50 were fitted according to Y=Bottom+(Top−Bottom)/(1+10^((Log EC50−X)*HillSlope)) applying constraints for bottom, top and slope (shared value for all data sets of the respective experiment).
The raw compound sample activity on stable hNPRA-CHO k1 cells was first assessed by comparison to the negative control TPP-5657 and to a positive sample, in particular TPP-5661. Controls and res were tested in quadruplets in two concentrations with a relative dilution factor of 5 aiming for a fluorescent signal (s) in the dynamic range of the assay. […] Values listed in Table 7, columns “activity res” and “stdev activity res”, represent the average of the results for the two concentrations and the respective standard deviation. Res signals less than half of the signal of the reference compound TPP-5661 (36%) were assessed as not active (n.a.).
The activity of several raw compound samples on stable hNPRA-CHO k1 cells was reassessed by comparison to reference sample TPP-5661 in 2.5-fold dilution series (8 concentrations) starting with a 5-fold dilution. The “log EC50” fit value as activity measure of the res was set in relation to the corresponding value of the reference res TPP-5661 by calculating the delta “log EC50” _compound−“log EC50” _TPP-5661; resulting values are listed in Table 7, column “rel. activity res”. […] All samples were applied in quadruplets.
The activity of isolated compound samples on stable hNPRA-CHO k1 cells was assessed by EC50 determination and comparison to reference sample TPP-5661. Samples were tested in 2.5-fold dilution series from 80 nM to 0.13 nM. The log EC50 fit value as activity measure of the ics was set in relation to the corresponding value of the reference ics TPP-5661 (−8.8) by calculating the delta log EC50_compound−log EC50_TPP-5661; resulting values are listed in Table 7, column “rel. log EC50 ics”. All samples were applied in quadruplets.
The activity of purified compound samples on stable hNPRA-CHO k1 cells was assessed in multiple experiments by EC50 determination and comparison to reference sample TPP-5661. Samples were tested in dilution series at least in quadruplets. […] The log EC50 fit value as activity measure of the pcs was set in relation to the corresponding value of the reference TPP-5661 in the respective experiment (in average −9.2, standard deviation 0.5) by calculating the delta log EC50_compound−log EC50_TPP-5661.
Compounds showing an activity in res without confirmation as ics or pcs are marked with an unified “y”, and compounds assessed as not active (“n.a.” in column “activity res”) probably due to their very low expression level (≤1 μg/ml, “n.e.” in column “μg/ml res”) are marked accordingly.

T3 sequence (P08473 52-750 limits assumed): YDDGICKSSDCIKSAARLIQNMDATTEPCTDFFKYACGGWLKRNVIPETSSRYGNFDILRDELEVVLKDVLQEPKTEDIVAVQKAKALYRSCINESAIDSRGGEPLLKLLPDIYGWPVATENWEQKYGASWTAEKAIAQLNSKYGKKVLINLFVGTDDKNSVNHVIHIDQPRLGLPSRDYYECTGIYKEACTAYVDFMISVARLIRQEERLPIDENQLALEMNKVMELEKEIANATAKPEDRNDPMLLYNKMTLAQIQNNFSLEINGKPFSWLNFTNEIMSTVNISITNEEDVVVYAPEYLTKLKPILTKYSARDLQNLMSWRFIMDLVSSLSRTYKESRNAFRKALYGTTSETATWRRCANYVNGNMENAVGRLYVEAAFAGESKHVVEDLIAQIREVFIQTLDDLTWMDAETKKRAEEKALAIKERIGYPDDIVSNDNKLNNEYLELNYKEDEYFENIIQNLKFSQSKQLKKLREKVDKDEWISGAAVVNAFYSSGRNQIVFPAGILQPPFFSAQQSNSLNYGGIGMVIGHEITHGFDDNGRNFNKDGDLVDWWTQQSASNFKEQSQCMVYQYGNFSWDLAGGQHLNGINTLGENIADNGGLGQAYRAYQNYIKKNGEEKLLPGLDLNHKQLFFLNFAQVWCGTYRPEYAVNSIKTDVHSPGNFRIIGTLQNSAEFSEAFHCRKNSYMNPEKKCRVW

| Molecule | proteolytic degradation by IDE [1] | proteolytic degradation by NEP [2] | qualit. activity (human NPRA (hNPRA)) |
| --- | --- | --- | --- |
| C5: CNP engrafted antibody, CDRH3 (antibody) heavy: EVQLLESGGGLVQPGGSLRLSCAASGFTFSSYAMSWVRQAPGKGLEWVSAISGSGGSTYYADSVKGRFTISRDNSKNTLYLQMNSLRAEDTAVYYCTSVHQETKKYQSSPYKGANKKGLSKGCFGLKLDRIGSMSGLGCGSGGSGSYSYTYNYEWHVDVWGQGTLVTVSS[here human IgG1 constant region without letters] light: QSVLTQPPSVSGAPGQRVTISCTGSSSNIGAGYDVHWYQQLPGTAPKLLIYGNSNRPSGVPDRFSGSKSGTSASLAITGLQAEDEADYYCQSYDSSLSGVVFGGGTKLTVLGQPKAAPSVTLFPPSSEELQANKATLVCLISDFYPGAVTVAWKADSSPVKAGVETTTPSKQSNNKYAASSYLSLTPEQWKSHRSYSCQVTHEGSTVEKTVAPTECS | high resistance | high resistance | – |
| 43: ANP engrafted antibody, CDRH2 (antibody) heavy: EVQLLESGGGLVQPGGSLRLSCAASGFTFSSYAMSWVRQAPGKGLEWVSAISVVVTSHQAPGEGGSGGSLRRSSCFGGRMDRIGAQSGLGCNSFRYGGSTPLKSLASTYYADSVKGRFTISRDNSKNTLYLQMNSLRAEDTAVYYCAKLTGAEYFQHWGQGTLVTVSS[here human IgG1 constant region without letters] light: QSVLTQPPSVSGAPGQRVTISCTGSSSNIGAGYDVHWYQQLPGTAPKLLIYGNSNRPSGVPDRFSGSKSGTSASLAITGLQAEDEADYYCQSYDSSLSGVVFGGGTKLTVLGQPKAAPSVTLFPPSSEELQANKATLVCLISDFYPGAVTVAWKADSSPVKAGVETTTPSKQSNNKYAASSYLSLTPEQWKSHRSYSCQVTHEGSTVEKTVAPTECS | – | – | ++ (relative log EC50<0.7 were assessed as very active) |
